The supplement of paper PMC12217912
The other results are listed elsewhere or left out. The full chains were built here from the parent and the listed change. Inactive controls read about 0.05.

B1: TEV protease; numbered along this chain (parent)
chain: MGESLFKGPRDYNPISSSICHLTNESDGHTTSLYGIGFGPFIITNKHLFRRNNGTLVVQSLHGVFKVKDTTTLQQHLVDGRDMIIIRMPKDFPPFPQKLKFREPQREERICLVTTNFQTKSMSSMVSDTSCTFPSGDGIFWKHWIQTKDGQCGSPLVSTRDGFIVGIHSASNFTNTNNYFTSVPKNFMELLTNQEAQQWVSGWRLNADSVLWGGHKVFMVKPEEPFQPVKEATQL

Variants of: B1
Assay: raw area under fraction-flipped curve 0-4 h after induction (AUC4h, not background-subtracted), DNA-recorder readout of cleavage of the substrate (dimensionless); higher = more cleavage of the substrate by the protease variant
Details: temperature: 34 °C; time window: 0-4 h after rhamnose induction
Experimental: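 In vivo DNA recorder in E. coli TOP10(DE3) ΔrhaA at 34 °C. Each TEVp single-site mutant (parent TEVp 0) is paired with a single-site variant of the 7-mer TEVs (canonical ENLYFQ|S). The substrate sits between flexible linkers in a Bxb1-sfGFP-TEVs-SsrA fusion, so cleavage stabilises Bxb1 and speeds flipping of a recombination array, read by NGS. The value is the raw area under the fraction-flipped curve over 0-4 h after rhamnose induction (AUC4h), with ≥20 reads per time point. It is not background-subtracted; inactive controls average about 0.047.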
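Note: Bxb1 expression induced with 0.2% (w/v) L-rhamnose at OD600 near 0.5, cultures sampled hourly, flipped fraction per protease–substrate barcode pair counted by paired-end Illumina sequencing.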

Variant	area with substrate FNLYFQS	area with substrate INLYFQS	area with substrate KNLYFQS	area with substrate LNLYFQS	area with substrate MNLYFQS	area with substrate SNLYFQS	area with substrate YNLYFQS	area with substrate HNLYFQS	area with substrate TNLYFQS	area with substrate NNLYFQS	area with substrate PNLYFQS	area with substrate QNLYFQS	area with substrate VNLYFQS	area with substrate WNLYFQS	area with substrate GNLYFQS	area with substrate RNLYFQS
G153A	0.0679	0.0571	0.0276	0.0533	0.0551											
C131G	0.047		0.0804			0.0755	0.0518									
F218C	0.0572			0.0576				0.0557	0.0667							
K98H	0.0618	0.0661	0.0666	0.0599	0.0694	0.0645	0.0535	0.0606		0.0691	0.0691	0.0661	0.0677			
E107Q	0.0623		0.0672	0.0659			0.0448	0.0592	0.0673		0.0637			0.0634		
E107V	0.0596	0.066		0.0617	0.0575	0.0677		0.0575	0.0548	0.0728	0.0796		0.059	0.0516		
F65K	0.0753	0.0672	0.0634	0.0668	0.0656	0.058		0.0488	0.0599	0.0678				0.0577	0.067	
F65C	0.0536	0.0212	0.0542	0.0589	0.0686	0.0641		0.0625	0.067	0.0626			0.0639	0.0487		0.0565
V165Q	0.0458	0.0385	0.0382	0.0724	0.0494	0.0298	0.0507	0.0372			0.052		0.0535	0.0468	0.0527	
K90T	0.0613	0.0156	0.0741	0.081	0.0647	0.0487	0.0548	0.0587	0.066	0.0719	0.0691					
D79R			0.0664		0.0803		0.0674	0.0617	0.0807		0.0666	0.0736	0.0757		0.0571	0.0608
L191R	0.0422	0.0562			0.0553		0.055	0.0583	0.0418		0.0707		0.0642	0.0631		
E108W	0.051		0.0386	0.059			0.0429	0.056	0.0554		0.0573		0.071	0.0534	0.0493	
N206D	0.0699	0.139	0.0748	0.0784	0.0843	0.0614	0.0729	0.0796			0.0691			0.0593	0.0771	0.0613
F41Y			0.0475	0.0585	0.117	0.0697	0.0885	0.0653	0.0641	0.0578	0.0729		0.0726	0.0671	0.0591	
V58C		0.055	0.0669	0.0672			0.0639	0.0617	0.0575		0.0777			0.0514	0.0548	
V58Y	0.0437			0.0486	0.057	0.0437	0.0681	0.0545	0.028		0.052		0.059	0.0406	0.0388	0.0544
Q59C		0.0677		0.0691						0.0645	0.072			0.0479	0.0495	

Variant	area with substrate FNLYFQS	area with substrate INLYFQS	area with substrate KNLYFQS	area with substrate LNLYFQS	area with substrate MNLYFQS	area with substrate SNLYFQS	area with substrate YNLYFQS	area with substrate HNLYFQS	area with substrate TNLYFQS	area with substrate NNLYFQS	area with substrate PNLYFQS	area with substrate QNLYFQS	area with substrate VNLYFQS	area with substrate WNLYFQS	area with substrate GNLYFQS	area with substrate RNLYFQS
Q59W	0.0628	0.0746	0.0517			0.0608		0.0546	0.0752		0.0613	0.0981		0.0794		
R87E	0.0726		0.067		0.0757			0.0609			0.0925		0.0648	0.0552		
I84L	0.0619	0.0783		0.062	0.0712	0.0625	0.0542	0.0598	0.0598	0.0754	0.0712			0.0558		
F226L	0.0668		0.0663		0.0703		0.0624	0.0709	0.0591	0.0712		0.0411	0.0562	0.062	0.0554	
S60I	0.0486				0.0634			0.0744			0.0575			0.0503	0.0504	
S60N	0.0544	0.0554	0.0694		0.0735		0.0581		0.0555	0.0891			0.057	0.0833	0.0741	
F187K	0.0331			0.052		0.0536	0.0389							0.0602		
F187S	0.0561	0.051	0.0617	0.0591	0.0629	0.0339		0.0533				0.0457	0.0619	0.0528	0.0584	
Q197L	0.0341	0.0887	0.0657	0.0649	0.0629	0.0796		0.0635	0.0686		0.0638			0.0599	0.0617	
N177F	0.058	0.0464		0.0687	0.0683	0.073	0.0447	0.0723	0.0575		0.0705			0.0632	0.0757	
I85N	0.0406	0.0428	0.0263	0.0445	0.0635	0.0477	0.0425	0.0641	0.0445	0.0476	0.0555				0.0485	0.046
V220H	0.0595	0.0777		0.0626		0.0872	0.0638	0.0725	0.0705		0.0828			0.065		0.065
P9E			0.0658		0.0586			0.0734	0.0598		0.0706				0.0734	
E195I	0.0753	0.0494	0.0518	0.046	0.052	0.0638	0.0725					0.0836		0.0719	0.0576	0.0626
Q234P	0.071		0.0539	0.0729	0.0444		0.036		0.0679		0.0694			0.0636		0.0618
R204Y	0.0535	0.0699			0.068	0.0879	0.0715	0.0679	0.0661	0.0757	0.0737	0.0445	0.0771	0.0636	0.0688	
L56N	0.0391	0.0485	0.0367					0.0521	0.0557	0.0673				0.0514		
